Test results reported in PubChem BioAssay AID445 (National Center for Advancing Translational Sciences (NCATS), 2006).
The whole screen tested about 110,000 compounds, of which about 40 (0.04%) were called active. Inconclusive results, whose numbers are uncertain, are shown with a selection of clear calls. Calls follow the shape of the dose curve; as a rule, active = well fitted curve in the direction sought with a large enough effect in the signal ratio (not every such curve was filed as active); inconclusive = small, poorly fitted or top-dose-only effect, or a change in a side signal; inactive = flat fitted curve, though single readings scatter; the % refers to the signal ratio. Potencies beside an inconclusive call are fits to weak or partial responses and may not hold up.

Assay: IkB Signaling;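 as to IkBa stabilization activation: 0% = basal untreated cells and 100% = reference inhibitor full response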
Settings: ABC-DLBCL IkBa-CBG/CBR dual luciferase ratio (green luciferase fused to IkBa over red control in OCI-Ly3 lymphoma cells), 4 h; IkBa stabilization activation: at 57.1 µM (top of the series), scaled: untreated 0%, proteasome inhibitor 100% unless noted
How it was run: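 Curves were fitted separately to fusion (green), unfused (red) and ratio luminescence, then classed by r2, magnitude and activity. Cells: OCI-Ly3, 4 h compound plus doxycycline at 37C; 10 uM MG-132 defined full response.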
Potency is read from the fitted curve at half-maximal effect.

Row | Compound | IkBa stabilization activation | Potency
1 | COc1ccc(CN2CCN(c3ncnc4sc5c(c34)CCCC5)CC2)cc1F | inconclusive: 12.9% [signal inhibitor] | 
2 | CCCCN(C)C(=O)c1ccc2c(c1)N(Cc1cccc(Cl)c1)C(=O)c1ccccc1S2=O (configuration not stated) | inconclusive: 0.249% [signal inhibitor] | 
3 | O=C(O)/C=C\c1c2ccc(=O)c(O)c-2oc2c(O)c(O)ccc12 | inactive: 2.03% [at 11.4 µM, scaled: untreated 0%, proteasome inhibitor 100%] | 
4 | COc1cc(C2Nc3ccccc3-c3nnc(SCc4ccc(Cl)cc4)nc3O2)ccc1OCC(=O)O (configuration not stated) |  | inconclusive: 25.1 µM [signal inhibitor]
5 | Cc1ccc2c(CC(=O)Nc3ccc(S(=O)(=O)Nc4nc(C)cc(C)n4)cc3)coc2c1 | inconclusive: 2.02% [signal inhibitor] | 
6 | COC(=O)c1ccc(NC(=O)c2nn(C)c3c2COc2ccccc2-3)cc1 | inconclusive: 2.53% [signal inhibitor] | 
7 | O=C(NCc1cccc(Cl)c1)c1oc(=O)c2ccccc2c1-c1ccccc1 | inactive | 
8 | Cc1nn(CCCC(=O)NCCc2ccc(Cl)cc2)c(=O)c2nn(-c3ccccc3)c(C)c12 | inconclusive: 2.88% [signal inhibitor] | 
9 | O=C(CSc1nc(Nc2ccccc2)nc(N2CCOCC2)n1)N1CCc2ccccc21 | inactive | 
10 | COc1ccc(C2CC(=O)c3cc(-c4nc(-c5cccc([N+](=O)[O-])c5)cs4)c(=O)n(-c4ccccc4C)c3C2)cc1 (configuration not stated) |  | inconclusive: 20 µM [signal inhibitor]
11 | Cc1ccc(-c2cc(NC(=O)COc3c(C)cc(C)cc3C)on2)cc1 | inconclusive: 1.71% [signal inhibitor] | 
12 | O=C(NCc1ccccc1F)c1cccc(NC(=O)N2CCSc3ncccc32)c1 | inconclusive: 3.4% [signal inhibitor] | 
13 | C/C(=N\[N+](C)(C)C)c1ccc(C)c(C)c1 | inactive: -0.882% [at 11.4 µM, scaled: untreated 0%, proteasome inhibitor 100%] | 
14 | COc1ccc(C)cc1NC(=O)C1CCN(S(=O)(=O)c2cccc3cccnc23)CC1 | inconclusive: 6.23% [signal inhibitor] | 
15 | O=C(CON1C(=O)c2ccccc2C1=O)c1ccccc1 | inactive: 1.43% [at 11.4 µM, scaled: untreated 0%, proteasome inhibitor 100%] | 
16 | CNc1nc2c(c(=O)[nH]c(=O)n2C)n1CCOC | inconclusive: 3.27% [signal inhibitor] | 
17 | Cc1cnc(CNc2ncnc3ccc(-c4ccccc4C)cc23)cn1 | inactive: 4.33% [at 11.4 µM, scaled: untreated 0%, proteasome inhibitor 100%] | 
